# Measurements taken from the supplement of paper PMC8728848.
# The list shows a part of the results.
# B1: SBD-G4S3-Fc (protein)
# chain: MASIPSSASVQLDSYNYDGSTFSGKIYVKNIAYSKKVTVVYADGSDNWNNNGNIIAASFSGPISGSNYEYWTFSASVKGIKEFYIKYEVSGKTYYDNNNSANYQVSTGGGGSGGGGSGGGGSEFVPRDCGCKPCICTVPEVSSVFIFPPKPKDVLTITLTPKVTCVVVDISKDDPEVQFSWFVDDVEVHTAQTQPREEQFNSTFRSVSELPIMHQDWLNGKEFKCRVNSAAFPAPIEKTISKTKGRPKAPQVYTIPPPKEQMAKDKVSLTCMITDFFPEDITVEWQWNGQPAENYKNTQPIMDTDGSYFVYSKLNVQKSNWEAGNTFTCSVLHEGLHNHHTEKSLSHSPGAA
# What was measured:
# Test in all cases: glycan array binding signal (z-score within array); higher = stronger binding
# Settings in all cases: glycan notation: IUPAC condensed, linker removed
# [1] = target: Fuc(a1-2)Gal6S(b1-3)GlcNAc6S
# Method in brief: (§1)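 Glycan array data were curated from 3228 arrays in the Consortium for Functional Glycomics database and kept only where the protein sequence was available. Glycan names were converted to IUPAC-condensed notation, and columns mapping to the same glycan were averaged. The binding signal is a within-array Z-score, averaged across arrays of the same protein sequence at different concentrations or buffers and across linkers. Negative Z-scores can be read as non-binding.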
# Fuc(a1-2)Gal6S(b1-4)Glc = target: Fuc(a1-2)Gal6S(b1-4)Glc
# Method in brief: as §1
# [2] = target: Fuc(a1-2)Gal6S(b1-4)Glc6S
# Method in brief: as §1
# Fuc(a1-2)[Gal(a1-3)]Gal = target: Fuc(a1-2)[Gal(a1-3)]Gal
# Method in brief: as §1
# [3] = target: Fuc(a1-2)[Gal(a1-3)]Gal(b1-3)GalNAc
# Method in brief: as §1
# [4] = target: Fuc(a1-2)[Gal(a1-3)]Gal(b1-3)GalNAc(b1-3)Gal(a1-4)Gal(b1-4)Glc
# Method in brief: as §1
# [5] = target: Fuc(a1-2)[Gal(a1-3)]Gal(b1-3)GlcNAc
# Method in brief: as §1
# [6] = target: Fuc(a1-2)[Gal(a1-3)]Gal(b1-3)GlcNAc(b1-2)Man(a1-3)[Fuc(a1-2)[Gal(a1-3)]Gal(b1-3)GlcNAc(b1-2)Man(a1-6)]Man(b1-4)GlcNAc(b1-4)GlcNAc
# Method in brief: as §1
# [7] = target: Fuc(a1-2)[Gal(a1-3)]Gal(b1-3)GlcNAc(b1-2)Man(a1-3)[Fuc(a1-2)[Gal(a1-3)]Gal(b1-3)GlcNAc(b1-2)Man(a1-6)]Man(b1-4)GlcNAc(b1-4)[Fuc(a1-6)]GlcNAc
# Method in brief: as §1
# [8] = target: Fuc(a1-2)[Gal(a1-3)]Gal(b1-3)GlcNAc(b1-3)GalNAc
# Method in brief: as §1
# [9] = target: Fuc(a1-2)[Gal(a1-3)]Gal(b1-3)GlcNAc(b1-6)GalNAc
# Method in brief: as §1
# [10] = target: Fuc(a1-2)[Gal(a1-3)]Gal(b1-4)Glc
# Method in brief: as §1
# [11] = target: Fuc(a1-2)[Gal(a1-3)]Gal(b1-4)GlcNAc
# Method in brief: as §1
# [12] = target: Fuc(a1-2)[Gal(a1-3)]Gal(b1-4)GlcNAc(b1-2)Man
# Method in brief: as §1
# [13] = target: Fuc(a1-2)[Gal(a1-3)]Gal(b1-4)GlcNAc(b1-2)Man(a1-3)[Fuc(a1-2)[Gal(a1-3)]Gal(b1-4)GlcNAc(b1-2)Man(a1-6)]Man(b1-4)GlcNAc(b1-4)GlcNAc
# Method in brief: as §1
# [14] = target: Fuc(a1-2)[Gal(a1-3)]Gal(b1-4)GlcNAc(b1-2)Man(a1-3)[Fuc(a1-2)[Gal(a1-3)]Gal(b1-4)GlcNAc(b1-2)Man(a1-6)]Man(b1-4)GlcNAc(b1-4)[Fuc(a1-6)]GlcNAc
# Method in brief: as §1
# [15] = target: Fuc(a1-2)[Gal(a1-3)]Gal(b1-4)GlcNAc(b1-3)GalNAc
# Method in brief: as §1
# [16] = target: Fuc(a1-2)[Gal(a1-3)]Gal(b1-4)GlcNAc(b1-3)[Fuc(a1-2)[Gal(a1-3)]Gal(b1-4)GlcNAc(b1-6)]GalNAc
# Method in brief: as §1
# [17] = target: Fuc(a1-2)[Gal(a1-3)]Gal(b1-4)GlcNAc(b1-6)GalNAc
# Method in brief: as §1
# [18] = target: Fuc(a1-2)[Gal(a1-3)]Gal(b1-4)[Fuc(a1-3)]Glc
# Method in brief: as §1
# [19] = target: Fuc(a1-2)[Gal(a1-3)]Gal(b1-4)[Fuc(a1-3)]GlcNAc
# Method in brief: as §1
# [20] = target: Fuc(a1-2)[Gal(a1-3)]Gal(b1-4)[Fuc(a1-3)]GlcNAc(b1-3)GalNAc
# Method in brief: as §1
# [21] = target: Fuc(a1-2)[Gal(a1-4)]Gal(b1-4)GlcNAc
# Method in brief: as §1
# [22] = target: Fuc(a1-2)[GalNAc(a1-3)]Gal
# Method in brief: as §1
# [23] = target: Fuc(a1-2)[GalNAc(a1-3)]Gal(b1-3)GalNAc(a1-3)[Fuc(a1-2)]Gal(b1-4)GlcNAc
# Method in brief: as §1
# [24] = target: Fuc(a1-2)[GalNAc(a1-3)]Gal(b1-3)GalNAc(b1-3)Gal(a1-4)Gal(b1-4)Glc
# Method in brief: as §1
# [25] = target: Fuc(a1-2)[GalNAc(a1-3)]Gal(b1-3)GlcNAc
# Method in brief: as §1
# [26] = target: Fuc(a1-2)[GalNAc(a1-3)]Gal(b1-3)GlcNAc(b1-2)Man(a1-3)[Fuc(a1-2)[GalNAc(a1-3)]Gal(b1-3)GlcNAc(b1-2)Man(a1-6)]Man(b1-4)GlcNAc(b1-4)GlcNAc
# Method in brief: as §1
# [27] = target: Fuc(a1-2)[GalNAc(a1-3)]Gal(b1-3)GlcNAc(b1-2)Man(a1-3)[Fuc(a1-2)[GalNAc(a1-3)]Gal(b1-3)GlcNAc(b1-2)Man(a1-6)]Man(b1-4)GlcNAc(b1-4)[Fuc(a1-6)]GlcNAc
# Method in brief: as §1
# [28] = target: Fuc(a1-2)[GalNAc(a1-3)]Gal(b1-3)GlcNAc(b1-3)GalNAc
# Method in brief: as §1
# [29] = target: Fuc(a1-2)[GalNAc(a1-3)]Gal(b1-3)GlcNAc(b1-6)GalNAc
# Method in brief: as §1
# [30] = target: Fuc(a1-2)[GalNAc(a1-3)]Gal(b1-4)Glc
# Method in brief: as §1
# [31] = target: Fuc(a1-2)[GalNAc(a1-3)]Gal(b1-4)GlcNAc
# Method in brief: as §1
# [32] = target: Fuc(a1-2)[GalNAc(a1-3)]Gal(b1-4)GlcNAc(b1-2)Man
# Method in brief: as §1
# [33] = target: Fuc(a1-2)[GalNAc(a1-3)]Gal(b1-4)GlcNAc(b1-2)Man(a1-3)[Fuc(a1-2)[GalNAc(a1-3)]Gal(b1-4)GlcNAc(b1-2)Man(a1-6)]Man(b1-4)GlcNAc(b1-4)GlcNAc
# Method in brief: as §1
# [34] = target: Fuc(a1-2)[GalNAc(a1-3)]Gal(b1-4)GlcNAc(b1-2)Man(a1-3)[Fuc(a1-2)[GalNAc(a1-3)]Gal(b1-4)GlcNAc(b1-2)Man(a1-6)]Man(b1-4)GlcNAc(b1-4)[Fuc(a1-6)]GlcNAc
# Method in brief: as §1
# [35] = target: Fuc(a1-2)[GalNAc(a1-3)]Gal(b1-4)GlcNAc(b1-3)Gal(b1-4)GlcNAc
# Method in brief: as §1
# [36] = target: Fuc(a1-2)[GalNAc(a1-3)]Gal(b1-4)GlcNAc(b1-3)Gal(b1-4)GlcNAc(b1-3)Gal(b1-4)GlcNAc
# Method in brief: as §1
# [37] = target: Fuc(a1-2)[GalNAc(a1-3)]Gal(b1-4)GlcNAc(b1-3)GalNAc
# Method in brief: as §1
# [38] = target: Fuc(a1-2)[GalNAc(a1-3)]Gal(b1-4)GlcNAc(b1-3)[Fuc(a1-2)[GalNAc(a1-3)]Gal(b1-4)GlcNAc(b1-6)]GalNAc
# Method in brief: as §1
# [39] = target: Fuc(a1-2)[GalNAc(a1-3)]Gal(b1-4)GlcNAc(b1-6)GalNAc
# Method in brief: as §1
# [40] = target: Fuc(a1-2)[GalNAc(a1-3)]Gal(b1-4)[Fuc(a1-3)]GlcNAc
# Method in brief: as §1
# [41] = target: Fuc(a1-2)[GalNAc(a1-3)]Gal(b1-4)[Fuc(a1-3)]GlcNAc(b1-3)GalNAc
# Method in brief: as §1
# [42] = target: Fuc(a1-2)[GalNAc(a1-4)]Gal(b1-4)GlcNAc
# Method in brief: as §1
# [43] = target: Fuc(a1-2)[GalNAc(b1-3)]Gal
# Method in brief: as §1
binder,measurement,setting,value
B1,glycan array binding signal (z-score),[1],-0.064
same,glycan array binding signal (z-score),Fuc(a1-2)Gal6S(b1-4)Glc,0.11
same,glycan array binding signal (z-score),[2],-0.103
same,glycan array binding signal (z-score),Fuc(a1-2)[Gal(a1-3)]Gal,-0.16
same,glycan array binding signal (z-score),[3],-0.326
same,glycan array binding signal (z-score),[4],0.044
same,glycan array binding signal (z-score),[5],-0.213
same,glycan array binding signal (z-score),[6],-0.026
same,glycan array binding signal (z-score),[7],0.186
same,glycan array binding signal (z-score),[8],-0.366
same,glycan array binding signal (z-score),[9],-0.211
same,glycan array binding signal (z-score),[10],-0.083
same,glycan array binding signal (z-score),[11],-0.379
same,glycan array binding signal (z-score),[12],-0.093
same,glycan array binding signal (z-score),[13],-0.022
same,glycan array binding signal (z-score),[14],0.297
same,glycan array binding signal (z-score),[15],-0.154
same,glycan array binding signal (z-score),[16],-0.465
same,glycan array binding signal (z-score),[17],-0.238
same,glycan array binding signal (z-score),[18],-0.033
same,glycan array binding signal (z-score),[19],-0.324
same,glycan array binding signal (z-score),[20],-0.371
same,glycan array binding signal (z-score),[21],-0.203
same,glycan array binding signal (z-score),[22],-0.286
same,glycan array binding signal (z-score),[23],5.6
same,glycan array binding signal (z-score),[24],0.07
same,glycan array binding signal (z-score),[25],-0.124
same,glycan array binding signal (z-score),[26],-0.372
same,glycan array binding signal (z-score),[27],-0.163
same,glycan array binding signal (z-score),[28],0.304
same,glycan array binding signal (z-score),[29],-0.143
same,glycan array binding signal (z-score),[30],-0.287
same,glycan array binding signal (z-score),[31],-0.292
same,glycan array binding signal (z-score),[32],-0.333
same,glycan array binding signal (z-score),[33],0.007
same,glycan array binding signal (z-score),[34],-0.364
same,glycan array binding signal (z-score),[35],-0.223
same,glycan array binding signal (z-score),[36],0.303
same,glycan array binding signal (z-score),[37],-0.187
same,glycan array binding signal (z-score),[38],-0.2
same,glycan array binding signal (z-score),[39],-0.206
same,glycan array binding signal (z-score),[40],0.004
same,glycan array binding signal (z-score),[41],-0.352
same,glycan array binding signal (z-score),[42],0.1
same,glycan array binding signal (z-score),[43],-0.002
